What follows are compounds tested against T1, Monoacylglycerol lipase (MGL) (Rattus norvegicus, UniProt Q8R431). Conditions: 100 µM.
T1 sequence (Q8R431 1-303): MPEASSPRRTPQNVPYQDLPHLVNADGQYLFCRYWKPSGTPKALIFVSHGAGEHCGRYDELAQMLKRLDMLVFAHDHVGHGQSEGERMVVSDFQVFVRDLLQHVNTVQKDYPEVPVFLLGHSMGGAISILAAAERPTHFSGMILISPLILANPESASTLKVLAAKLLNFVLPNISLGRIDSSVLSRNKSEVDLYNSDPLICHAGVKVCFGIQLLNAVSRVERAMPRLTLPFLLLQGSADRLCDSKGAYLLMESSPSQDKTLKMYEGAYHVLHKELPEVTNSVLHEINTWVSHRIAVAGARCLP
`O=C(Nc1ccc(-c2ccccc2Cl)cc1)OC12CC3CC(CC(C3)C1)C2` [53.37%] showed an inhibition of 61%. With `OC(O)(c1ccccn1)C(F)(F)CCCCOc1ccccc1` [89.9 Hydrate form] the inhibition was 69%. In the case of `O=C(CCCCCCOc1ccc(OCc2ccccc2)cc1)C(F)(F)F` [Compound 23.4, 1,1,1-Trifluoro-8-[4-(Benzyloxy)phenoxy]-2-octanone], the inhibition was 34%. `O=C(CCCOc1ccccc1OCc1ccccc1)C(F)(F)F` [Compound 23.8, 1,1,1-Trifluoro-5-[2-(Benzyloxy)phenoxy]-2-pentanone] was tested, and the inhibition was 20%. `O=C(CCCCOc1ccccc1OCc1ccccc1)C(F)(F)F` [Compound 23.9, 1,1,1-Trifluoro-6-[2-(Benzyloxy)phenoxy]-2-hexanone] gave an inhibition of 47%. `O=C(CCCOc1ccccc1)C(F)(F)F` [Compound 23.11, 1,1,1-Trifluoro-5-phenoxy-2-pentanone] was tested, and the inhibition was 13%. `O=C(CCCCOc1ccccc1)C(F)(F)F` [Compound 23.12, 1,1,1-Trifluoro-6-phenoxy-2-hexanone] showed an inhibition of 3%. `O=C(CCCOc1ccc(O)cc1)C(F)(F)F` [Compound 24.1, 1,1,1-Trifluoro-5-[4-(hydroxy)phenoxy]-2-pentanone] showed an inhibition of 6%. `O=C(CCCCOc1ccc(O)cc1)C(F)(F)F` [Compound 24.2, 1,1,1-Trifluoro-6-[4-(hydroxy)phenoxy]-2-hexanone] showed an inhibition of 21%. `O=C(CCCCCOc1ccc(O)cc1)C(F)(F)F` [Compound 24.3, 1,1,1-Trifluoro-7-[4-(hydroxy)phenoxy]-2-heptanone] showed an inhibition of 17%. `Oc1cccc(OCCCC(O)(O)C(F)(F)F)c1` [Compound 24.5, 1,1,1-Trifluoro-2,2-dihydroxy-5-[3-(hydroxy)phenoxy]pentane] gave an inhibition of 3%. In the case of `O=C(CCCCOc1cccc(O)c1)C(F)(F)F` [Compound 24.6, 1,1,1-Trifluoro-6-[3-(hydroxy)phenoxy]-2-hexanone], the inhibition was 9%. With `O=C(CCCOc1ccccc1O)C(F)(F)F` [Compound 24.8, 1,1,1-Trifluoro-5-[2-(hydroxy)phenoxy]-2-pentanone] the inhibition was 4%. For `O=C(CCCCCOc1ccccc1O)C(F)(F)F` [Compound 24.10, 1,1,1-Trifluoro-7-[2-(hydroxy)phenoxy]-2-heptanone], the inhibition was 19%. `O=C(CCCc1ccccc1)C(F)(F)F` [Compound 27.1, 1,1,1-Trifluoro-5-phenyl-2-pentanone] was tested, and the inhibition was 5%. Work on `O=C(CCCCc1ccccc1)C(F)(F)F` [Compound 27.2, 1,1,1-Trifluoro-6-phenyl-2-hexanone] yielded an inhibition of 21%. In the case of `O=C(CCCCCc1ccccc1)C(F)(F)F` [Compound 27.3, 1,1,1-Trifluoro-7-phenyl-2-heptanone], the inhibition was 36%. For `COc1ccc(CCCCC(=O)C(F)(F)F)cc1` [Compound 27.4, 1,1,1-Trifluoro-6-(4-methoxy-phenyl)-2-hexanone], the inhibition was 13%. For `O=C(Cc1cccc(-c2cccc(OCc3ccccc3)c2)c1)C(F)(F)F` [Compound 35, 1,1,1-Trifluoro-3-(3-benzyloxy-biphenyl-3-yl)-2-propanone], the inhibition was 21%. For `CCCCCCc1ccc(O)c(-c2ccc(C(=O)C(F)(F)F)cc2)c1OC` [Compound 40.3, 2,2,2-Trifluoro-1-(3′-hexyl-6′-hydroxy-2′-methoxybiphenyl-4-yl)ethanone], the inhibition was 81%. `CC(Cl)OC(=O)OCCCCOc1cccc(OCc2ccccc2)c1` (stereo not drawn) [Compound 46.3] showed an inhibition of 35%. `Cc1csc(NC(=O)OCCCCOc2cccc(OCc3ccccc3)c2)n1` [Compound 46.4] gave an inhibition of 24%. Compound `O=C(Nc1ccc(Br)cc1)OC1CCCCC1` [Compound 48.1, (4-Bromophenyl)carbamic acid cyclohexyl ester] has an inhibition of 98%. For `CCOC(=O)Nc1ccc(Br)cc1` [Compound 48.2], the inhibition was 44%. With `O=C(Nc1ccc(Br)cc1)OCc1ccccc1` [Compound 48.3, (4-Bromophenyl)carbamic acid benzyl ester] the inhibition was 92%. `O=C(Nc1ccc(I)cc1)Oc1ccccc1` [Compound 48.6, (4-Iodophenyl)carbamic acid phenyl ester] was tested, and the inhibition was 52%. Compound `O=C(Nc1ccc(Br)cc1)OCc1cccc(Br)n1` [Compound 48.7] has an inhibition of 55%. For `O=C(Nc1ccc(Br)cc1)OCc1ccc2c(c1)OCO2` [Compound 48.8], the inhibition was 32%. Compound `O=C(Nc1ccc(Br)cc1)OCc1ccco1` [Compound 48.9] has an inhibition of 29%. With `CCCCCCC(C)(C)c1cc(OCOC)c(-c2ccc(NC(=O)OCC)cc2)c(OCOC)c1` [Compound 52.2, 2′,6′-Bis(methoxymethoxy)-4′-(1,1-dimethylheptyl)[1,1′-biphenyl]-4-yl carbamic acid ethyl ester] the inhibition was 92%. With `CCCCCCC(C)(C)c1cc(OCOC)c(-c2ccc(NC(=O)OCc3ccccc3)cc2)c(OCOC)c1` [Compound 52.3, 2′,6′-Bis(methoxymethoxy)-4′-(1,1-dimethylheptyl)[1,1′-biphenyl]-4-yl carbamic acid benzyl ester] the inhibition was 96%. Compound `CCCCCCC(C)(C)c1cc(O)c(-c2ccc(NC(=O)OC3CCCCC3)cc2)c(O)c1` [Compound 53.1, 2′,6′-Dihydroxy-4′-(2-methyloctan-2-yl)biphenyl-4-yl carbamic acid cyclohexyl ester] has an inhibition of 41%. Work on `CCCCCCC(C)(C)c1cc(O)c(-c2ccc(NC(=O)OCC)cc2)c(O)c1` [Compound 53.2, 2′,6′-Dihydroxy-4′-(1,1-dimethylheptyl)[1,1′-biphenyl]-4-yl carbamic acid ethyl ester] yielded an inhibition of 63%. Compound `O=C(Nc1ccc([N+](=O)[O-])cc1)OC1C2CC3CC(C2)CC1C3` (stereo not drawn) [Compound 53.5] has an inhibition of 88%. Compound `CC(C)(C)c1ccc(NC(=O)OC23CC4CC(CC(C4)C2)C3)cc1` [Compound 53.7] has an inhibition of 34%. For `O=C(Nc1ccc(C(F)(F)F)cc1)OC12CC3CC(CC(C3)C1)C2` [Compound 53.8], the inhibition was 54%. In the case of `O=C(Nc1ccc(Cl)cc1Cl)OC12CC3CC(CC(C3)C1)C2` [Compound 53.11], the inhibition was 89%. For `O=C(Nc1cccc2ccccc12)OC12CC3CC(CC(C3)C1)C2` [Compound 53.12], the inhibition was 17%. `O=C(Nc1cccc(Br)c1)OC1C2CC3CC(C2)CC1C3` (stereo not drawn) [Compound 53.13] showed an inhibition of 76%. Compound `CC12CC3CC(C)(C1)CC(COC(=O)Nc1ccc(Br)cc1)(C3)C2` [Compound 53.19] has an inhibition of 78%. In the case of `COc1cc(CNC(=O)OC23CC4CC(CC(C4)C2)C3)cc(OC)c1` [Compound 53.23], the inhibition was 22%. Compound `O=C(Nc1cccc(-c2ccccc2)c1)OC12CC3CC(CC(C3)C1)C2` [Compound 53.27] has an inhibition of 88%. `O=C(Nc1ccc(-c2cc(Cl)ccc2Cl)cc1)OC1C2CC3CC(C2)CC1C3` (stereo not drawn) [Compound 53.29] gave an inhibition of 84%. `O=C(Nc1ccc(-c2cc(Cl)cc(Cl)c2)cc1)OC12CC3CC(CC(C3)C1)C2` [Compound 53.30] showed an inhibition of 72%. In the case of `O=C(Nc1ccc(-c2cc(F)cc(F)c2)cc1)OC12CC3CC(CC(C3)C1)C2` [Compound 53.31], the inhibition was 54%. For `CC(=O)c1cccc(-c2ccc(NC(=O)OC3C4CC5CC(C4)CC3C5)cc2)c1` (stereo not drawn) [Compound 53.32], the inhibition was 18%. For `COc1cc(-c2ccc(NC(=O)OC34CC5CC(CC(C5)C3)C4)cc2)cc(OC)c1OC` [Compound 53.33], the inhibition was 21%. `O=C(Nc1ccc(-c2ccccc2)cc1)OC1C2CC3CC(C2)CC1C3` (stereo not drawn) [Compound 53.35] gave an inhibition of 78%.

From patent US20110039874A1 (Northeastern University, priority 2007, published 2011)
